Measured values published in PMC10668032.
This is one part of the list. At the low end of the ranking the order means little.

What follows are sequences tested against SIX1-Q177R homeodomain (UniProt Q15475) (assay: universal protein binding microarray). Conditions: Universal all-10-mer PBM (8x60K, AMADID 030236), 300 nM GST-tagged protein, Alexa Fluor 488 anti-GST; buffer, salt, pH and temperature not stated; high values mean tight binding; most listed sequences are background and not binding sites; double strand, one strand shown.

| Sequence | binding signal |
| --- | --- |
| AGACGGTC | -0.101 E-score |
| ACGCTTGG | 0.00936 E-score |
| GCGGTTCC | -0.0635 E-score |
| AGGAAGAC | -0.0588 E-score |
| ATTAAGTC | -0.0372 E-score |
| GAGGCATA | -0.142 E-score |
| ACAGCGTG | 0.0831 E-score |
| GAAGCCTC | -0.0815 E-score |
| ACCACCAT | 0.0308 E-score |
| ATTGATAC | 0.196 E-score |
| ATGTGAAT | -0.166 E-score |
| GGGCGTCA | 0.137 E-score |
| GCTATTGA | -0.014 E-score |
| ATTCGCGC | -0.137 E-score |
| AGAATCAT | -0.209 E-score |
| AGTCATGC | -0.0902 E-score |
| CTATGGTA | 0.0827 E-score |
| GTCGGGTA | 0.221 E-score |
| GATTTGGC | -0.179 E-score |
| ATTCACTC | 0.151 E-score |
| GATACTAC | 0.183 E-score |
| AGTCTTGG | -0.0401 E-score |

| Sequence | binding signal |
| --- | --- |
| AGGGGGTG | 0.396 E-score |
| CCGTCCCA | -0.0798 E-score |
| ACAGAGGT | 0.156 E-score |
| ATAAACAA | -0.2 E-score |
| CCTGACCC | 0.159 E-score |
| TTAAAAAA | -0.262 E-score |
| CTTGGTAC | -0.051 E-score |
| AATATCCA | -0.088 E-score |
| CCATGTCA | -0.0217 E-score |
| CATTCCGC | -0.0898 E-score |
| ATTAGTCA | -0.147 E-score |
| ATGACGAG | -0.094 E-score |
| ATACAATC | -0.173 E-score |
| CGGGTCGC | 0.189 E-score |
| GAGGTGAC | 0.0284 E-score |
| GGAGTCAC | 0.333 E-score |
| AGCTCAGC | -0.279 E-score |
| CTTTCGCC | -0.214 E-score |
| TGACTAAA | -0.252 E-score |
| AGACGCAG | 0.00415 E-score |
| TCGTAAAA | -0.174 E-score |
| AATAGGGT | 0.0772 E-score |

| Sequence | binding signal |
| --- | --- |
| CGAGCCTC | -0.171 E-score |
| CCATTGAG | -0.174 E-score |
| CTTCACTC | -0.0294 E-score |
| ACGACGTA | -0.0132 E-score |
| GTTACCCA | 0.0576 E-score |
| CGAGACAA | -0.0377 E-score |
| AAACTACA | 0.184 E-score |
| TACTCAAA | -0.0458 E-score |
| AGTTTGTC | -0.271 E-score |
| CCCGCATC | 0.0395 E-score |
| ACACATTA | 0.034 E-score |
| CAAAACTC | -0.0238 E-score |
| CATGATCG | -0.141 E-score |
| ATGTTGGG | -0.00551 E-score |
| CAAGAATC | -0.0891 E-score |
| GATCCATC | 0.00879 E-score |
| GCCACAAC | 0.144 E-score |
| CAGTTGCC | -0.145 E-score |
| AATTGTAT | -0.115 E-score |
| CAAATTGG | -0.0497 E-score |
| AGCAATAG | 0.0261 E-score |
| GTCGACGA | -0.0953 E-score |

| Sequence | binding signal |
| --- | --- |
| GTAGGTAA | 0.0856 E-score |
| AGCGCCGG | -0.145 E-score |
| AAATCGAT | -0.225 E-score |
| AACCTAAC | -0.0407 E-score |
| AGCCCGCC | 0.0209 E-score |
| AACCGGGT | 0.218 E-score |
| ATGTGGAG | 0.0441 E-score |
| CGTGTGAC | 0.304 E-score |
| CAATATCC | 0.0119 E-score |
| CCGATTGC | -0.041 E-score |
| TACCGCGA | 0.0762 E-score |
| ACGTGCTA | 0.0141 E-score |
| CCGTCTAA | 0.149 E-score |
| ACCCAGAG | 0.0892 E-score |
| TAAAAAAA | -0.201 E-score |
| AAATAAAC | -0.196 E-score |
| AGAAATGA | -0.312 E-score |
| GAACGGGC | -0.144 E-score |
| CTCGGCCC | -0.179 E-score |
| CATCGATG | -0.0458 E-score |
